# Results as given in the supplement of paper PMC8728848.
# The list shows a part of the results.
# B1: Gal 1 (Mus musculus), P16045 (protein)
# chain: MACGLVASNLNLKPGECLKVRGEVASDAKSFVLNLGKDSNNLCLHFNPRFNAHGDANTIVCNTKEDGTWGTEHREPAFPFQPGSITEVCITFDQADLTIKLPDGHEFKFPNRLNMEAINYMAADGDFKIKCVAFE
# Key:
# Experiment in all cases: glycan array binding signal (z-score within array); higher = stronger binding
# Settings in all cases: glycan notation: IUPAC condensed, linker removed
# [1] = target: Fuc(a1-2)Gal(b1-4)GlcNAc(b1-2)[Fuc(a1-2)Gal(b1-4)GlcNAc(b1-4)]Man(a1-3)[Fuc(a1-2)Gal(b1-4)GlcNAc(b1-2)Man(a1-6)]Man(b1-4)GlcNAc(b1-4)GlcNAc
# How it was run: (§1)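 Columns mapping to the same glycan were averaged after glycan names were converted to IUPAC-condensed notation. The data come from 3228 arrays in the Consortium for Functional Glycomics database, limited to those with an available protein sequence. Binding is reported as a within-array Z-score averaged across arrays of one protein sequence and across linkers.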
# [2] = target: Fuc(a1-2)Gal(b1-4)GlcNAc(b1-3)Gal(b1-4)GlcNAc
# How it was run: as §1
# [3] = target: Fuc(a1-2)Gal(b1-4)GlcNAc(b1-3)Gal(b1-4)GlcNAc(b1-2)Man(a1-3)[Fuc(a1-2)Gal(b1-4)GlcNAc(b1-3)Gal(b1-4)GlcNAc(b1-2)Man(a1-6)]Man(b1-4)GlcNAc(b1-4)GlcNAc
# How it was run: as §1
# [4] = target: Fuc(a1-2)Gal(b1-4)GlcNAc(b1-3)Gal(b1-4)GlcNAc(b1-3)Gal(b1-4)GlcNAc
# How it was run: as §1
# [5] = target: Fuc(a1-2)Gal(b1-4)GlcNAc(b1-3)GalNAc
# How it was run: as §1
# [6] = target: Fuc(a1-2)Gal(b1-4)GlcNAc(b1-3)[Fuc(a1-2)Gal(b1-4)GlcNAc(b1-6)]GalNAc
# How it was run: as §1
# [7] = target: Fuc(a1-2)Gal(b1-4)GlcNAc(b1-3)[Fuc(a1-3)[Gal(b1-4)]GlcNAc(b1-6)]Gal(b1-4)Glc
# How it was run: as §1
# [8] = target: Fuc(a1-2)Gal(b1-4)GlcNAc(b1-6)GalNAc
# How it was run: as §1
# [9] = target: Fuc(a1-2)Gal(b1-4)GlcNAc6S
# How it was run: as §1
# [10] = target: Fuc(a1-2)Gal(b1-4)[Fuc(a1-3)]GlcNAc
# How it was run: as §1
# [11] = target: Fuc(a1-2)Gal(b1-4)[Fuc(a1-3)]GlcNAc(b1-2)Man(a1-3)[Fuc(a1-2)Gal(b1-4)[Fuc(a1-3)]GlcNAc(b1-2)Man(a1-6)]Man(b1-4)GlcNAc(b1-4)GlcNAc
# How it was run: as §1
# [12] = target: Fuc(a1-2)Gal(b1-4)[Fuc(a1-3)]GlcNAc(b1-2)Man(a1-3)[Fuc(a1-2)Gal(b1-4)[Fuc(a1-3)]GlcNAc(b1-2)Man(a1-6)]Man(b1-4)GlcNAc(b1-4)[Fuc(a1-6)]GlcNAc
# How it was run: as §1
# [13] = target: Fuc(a1-2)Gal(b1-4)[Fuc(a1-3)]GlcNAc(b1-2)[Fuc(a1-2)Gal(b1-4)[Fuc(a1-3)]GlcNAc(b1-4)]Man(a1-3)[Fuc(a1-2)Gal(b1-4)[Fuc(a1-3)]GlcNAc(b1-2)Man(a1-6)]Man(b1-4)GlcNAc(b1-4)GlcNAc
# How it was run: as §1
# [14] = target: Fuc(a1-2)Gal(b1-4)[Fuc(a1-3)]GlcNAc(b1-3)Gal(b1-4)[Fuc(a1-3)]GlcNAc
# How it was run: as §1
# [15] = target: Fuc(a1-2)Gal(b1-4)[Fuc(a1-3)]GlcNAc(b1-3)Gal(b1-4)[Fuc(a1-3)]GlcNAc(b1-3)Gal(b1-4)[Fuc(a1-3)]GlcNAc
# How it was run: as §1
# [16] = target: Fuc(a1-2)Gal(b1-4)[Fuc(a1-3)]GlcNAc(b1-3)GalNAc
# How it was run: as §1
# [17] = target: Fuc(a1-2)Gal(b1-4)[Fuc(a1-3)]GlcNAc(b1-3)[Neu5Ac(a2-6)Gal(b1-4)GlcNAc(b1-6)]Gal(b1-4)Glc
# How it was run: as §1
# [18] = target: Fuc(a1-2)Gal3S(b1-4)GlcNAc
# How it was run: as §1
# [19] = target: Fuc(a1-2)Gal6S(b1-3)GlcNAc
# How it was run: as §1
# [20] = target: Fuc(a1-2)Gal6S(b1-3)GlcNAc6S
# How it was run: as §1
# [21] = target: Fuc(a1-2)Gal6S(b1-4)Glc
# How it was run: as §1
# [22] = target: Fuc(a1-2)Gal6S(b1-4)Glc6S
# How it was run: as §1
binder,measurement,setting,value
B1,glycan array binding signal (z-score),[1],0.547
same,glycan array binding signal (z-score),[2],-0.082
same,glycan array binding signal (z-score),[3],0.751
same,glycan array binding signal (z-score),[4],-0.014
same,glycan array binding signal (z-score),[5],-0.219
same,glycan array binding signal (z-score),[6],-0.06
same,glycan array binding signal (z-score),[7],-0.131
same,glycan array binding signal (z-score),[8],-0.126
same,glycan array binding signal (z-score),[9],-0.205
same,glycan array binding signal (z-score),[10],-0.34
same,glycan array binding signal (z-score),[11],-0.212
same,glycan array binding signal (z-score),[12],-0.266
same,glycan array binding signal (z-score),[13],-0.199
same,glycan array binding signal (z-score),[14],-0.414
same,glycan array binding signal (z-score),[15],-0.316
same,glycan array binding signal (z-score),[16],-0.099
same,glycan array binding signal (z-score),[17],-0.44
same,glycan array binding signal (z-score),[18],-0.367
same,glycan array binding signal (z-score),[19],-0.468
same,glycan array binding signal (z-score),[20],-0.087
same,glycan array binding signal (z-score),[21],-0.302
same,glycan array binding signal (z-score),[22],-0.128
